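Dose response: 5 concentrations. Exposure: 48 h. Format: 96-well plates. Endpoint: linear interpolation; highest concentration if not reached. GI50 is the concentration that inhibits growth by half.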 Activity calls are given as the source filed them. No stated cut-off is given here; in the data, active = GI50 up to about 1.1 µM and inactive = higher.
Each compound was assayed on NCI-H322M (assay: growth of human tumour cells (NCI), 48 h).

| Structure (SMILES) | GI50 |
| --- | --- |
| COc1ccnc2c1C(=O)c1nc3ccccc3c3ccnc-2c13 | active: 0.0759 µM |
| CC(=O)ON(C(C)=O)c1ccc(-c2nc3ccccc3s2)cc1C | inactive: 55.5 µM |
| S=C(Nc1ccc2c(c1)Cc1ccccc1-2)Nc1ccc2c(c1)Cc1ccccc1-2 | inactive: > 100 µM |
| c1ccc2c(CSCc3cccc4ccccc34)cccc2c1 | inactive: > 100 µM |
| Nc1nc(N)c(-c2cccc(C(F)(F)F)c2)c(Cc2cccc(C(F)(F)F)c2)n1 | inactive: 3.56 µM |
| OC(Cc1cccnc1)(c1ccccc1)c1ccccc1 | inactive: > 100 µM |
| Oc1cc(-c2cccs2)nc2cc3c(cc12)OCO3 | inactive: 4.71 µM |
| CC1=C(/C=C/C(=O)O)C(C)(C)CCC1 | inactive: > 100 µM |
| CCOc1cc2c(cc1O)CC[C@@H]1[C@@H]2CC[C@]2(C)[C@@H](O)CC[C@@H]12 | active: 0.0673 µM |
| COc1ccc(C2c3cc4c(cc3OC(NNC(N)=O)C2C)OCO4)cc1 (configuration not stated) | inactive: 7.6 µM |
| CN(C)S(=O)(=O)c1nc(Cl)c2nc[nH]c2n1 | inactive: > 100 µM |
| CC(=O)NC(Cc1c[nH]c2ccccc12)C(=O)O (configuration not stated) | inactive: > 100 µM |
| Cc1nc2ccccc2c(=O)n1NC(=O)c1ccc(N)cc1 | inactive: > 100 µM |
| Cc1ccc2nc(Cl)c(/C=N/N3C(=O)/C(=C/c4cccc([N+](=O)[O-])c4)N=C3c3ccccc3)cc2c1 | inactive: > 100 µM |
| N#Cc1c(N)c(C#N)c2c(c1-c1ccc(Cl)cc1)COc1ccccc1-2 | inactive: 2.55 µM |
| CCCC(=O)C(CC)/C(CCC(=O)N(Cc1ccccc1)Cc1ccccc1)=N/NC(=O)C[N+](C)(C)C (configuration not stated) | inactive: > 100 µM |
| N#CCc1nc(C#N)c(N)o1 | inactive: > 100 µM |
| COc1ccccc1C(O)(c1ccccc1)C(O)(c1ccccc1)c1ccccc1OC (configuration not stated) | inactive: > 100 µM |
| Cn1c(=O)c2c([nH]/c(=N/N=C/c3ccccc3C(=O)O)n2C)n(C)c1=O | inactive: > 100 µM |
| CCOC1=NC(C(F)(F)F)(C(F)(F)F)N=C(N2CCCCC2)O1 | inactive: > 100 µM |
| CC(C)(C)C1=Cc2cc3cc(C(C)(C)C)[nH]c(=O)c3cc2S(=O)(=O)N1 | inactive: 30.7 µM |
| CC(=O)NC1C(OCc2ccccc2)OC(CO)C(O)C1OC(C)C(=O)N[C@@H](C)C(=O)N[C@H](CCC(=O)NCCNCCNc1c2ccccc2nc2cccc([N+](=O)[O-])c12)C(N)=O (some centres not stated) | active: 0.152 µM |
| CC(C)OP(=O)(OC(C)C)/C(=N/Nc1ccc([N+](=O)[O-])cc1)NNC(=O)c1ccccc1 | inactive: 60.8 µM |

| Structure (SMILES) | GI50 |
| --- | --- |
| Cc1cccc(-n2c(C)nc3ccc(NC(=S)Nc4ccccc4)cc3c2=O)c1 | inactive: > 100 µM |
| CC12Cc3cc4c(cc3C1(c1ccc([N+](=O)[O-])cc1)OCCO2)OCO4 (configuration not stated) | inactive: > 100 µM |
| COc1ccc2c3c(c(C(=O)c4ccccc4)oc13)CCC2 | inactive: > 100 µM |
| C/C(C=O)=C/[C@@]1(C)O[C@@H](C)[C@@](C)(O)[C@@H]1O | inactive: > 100 µM |
| CC(=O)OC1OC2C(NC(=O)OC(C)(C)C)C1CC2(OCc1ccccc1)OCc1ccccc1 (configuration not stated) | inactive: 46.6 µM |
| Cc1ccc(NC(=O)CC(=O)n2nc(-c3ccccc3)c(/N=N\c3ccccc3[N+](=O)[O-])c2-c2ccccc2)cc1 | inactive: > 100 µM |
| Cn1c(=O)c2c(nc3n2CCCC(=O)N3CCCCl)n(C)c1=O | inactive: > 100 µM |
| COc1ccc(/C=C2\CCC(C)c3c2nc(N)c(C#N)c3-c2ccc(OC)c(OC)c2)cc1OC (configuration not stated) | inactive: 31 µM |
| Cc1ccc(S(=O)(=O)N(c2ccccc2F)C2CCCCC2O)cc1 (configuration not stated) | inactive: 66.5 µM |
| COC(=O)C1=C(c2ccc3c(c2)OCO3)O[C@H](c2ccc3c(c2)OCO3)[C@H]1COC(C)=O | inactive: > 100 µM |
| CCOC(=O)CCC(NC(=O)c1ccc(Nc2nc3ccc(C(F)(F)F)cc3nc2-c2ccccc2)cc1)C(=O)OCC (configuration not stated) | inactive: > 100 µM |
| Cc1ccc(C2CC(=O)CC(c3ccc(C)cc3)C23C(=O)NC(=O)NC3=O)cc1 (configuration not stated) | inactive: > 100 µM |
| CSc1nn(C)cc2ncnc1-2 | inactive: > 100 µM |
| CC(=O)OCc1nnn2c1C(OC(C)=O)CC2 (configuration not stated) | inactive: > 100 µM |
| N=C1C(O)C2(I)c3ccccc3N3C(=N)C(O)C4c5ccccc5N1C4C32 (configuration not stated) | inactive: > 100 µM |
| Cc1cc2nc3n(c2cc1C)C(c1c(F)cccc1F)SC3 (configuration not stated) | inactive: 26.1 µM |
| O=[N+]([O-])c1ccc(/C(Cl)=C/c2ccc(/C=C(\Cl)c3ccc([N+](=O)[O-])cc3[N+](=O)[O-])cc2)c([N+](=O)[O-])c1 | inactive: > 100 µM |
| CN(C)N1C(=O)S/C(=C\c2ccc([N+](=O)[O-])cc2)C1=O | inactive: 76.4 µM |
| CCCCN1C(=O)c2c(-c3sccc3N)sc(-c3sccc3N)c2C1=O | inactive: 27.2 µM |
| COc1cc2c(c(O)c1O)-c1ccc(OC)c(=O)cc1C(NC(C)=O)CC2 (configuration not stated) | inactive: 43 µM |
| CCc1cc2c(c3c1CCCC3)CC1(Cc3ccc(C(=O)OC)cc3C1)C2 (configuration not stated) | inactive: > 100 µM |
| Cc1cccc2c1C(=O)C1(Cc3ccccc3C1=O)C2 (configuration not stated) | inactive: 87.1 µM |
| CCCCN(CCCC)CC(C(=O)Nc1ccccc1)/C(C)=N\NC(=O)c1ccncc1 (configuration not stated) | inactive: > 100 µM |

| Structure (SMILES) | GI50 |
| --- | --- |
| Clc1cc(OCc2nn3c(Cc4ccccc4)nnc3s2)c(Cl)cc1OCc1nn2c(Cc3ccccc3)nnc2s1 | inactive: > 100 µM |
| O=C(NNC(=S)Nc1ccccc1)c1cc(-c2ccccc2)nc2ccccc12 | inactive: 23.9 µM |
| COC(=O)C(Cc1ccccc1)NP(=O)(O)OCC1OC(n2cc(F)c(=O)[nH]c2=O)CC1O (configuration not stated) | inactive: 15.6 µM |
| C=C1C(=O)OC2C1CC(O)/C(C)=C\CCC1(C)OC21 (configuration not stated) | inactive: 61.5 µM |
| O=C1CC(n2cccc2)c2c(Br)sc(Br)c21 (configuration not stated) | inactive: 19.1 µM |
| CN1S(=O)(=O)N(C)P12(N=P(CP(=NP13(N(C)S(=O)(=O)N1C)N(C)S(=O)(=O)N3C)(c1ccccc1)c1ccccc1)(c1ccccc1)c1ccccc1)N(C)S(=O)(=O)N2C | inactive: > 100 µM |
| COc1ccc2nc3cccc([N+](=O)[O-])c3c(NCCN(C)C)c2c1 | active: 0.164 µM |
| S=C1Nc2cnc3ccccc3c2SC1c1ccccc1 (configuration not stated) | inactive: > 100 µM |
| CC1(C(=O)O)CCCC1C(=O)O (configuration not stated) | inactive: > 100 µM |
| O=[N+]([O-])c1ccc(C2CC(c3ccccc3Cl)=Nc3ccccc3[S+]2[O-])cc1 (configuration not stated) | inactive: 15.6 µM |
| N#CC(C(=O)/C(=N\Nc1nc(S)nn1N)C(C#N)c1ccc(Cl)cc1)c1ccc(Cl)cc1 (configuration not stated) | inactive: > 100 µM |
| C=Cc1nc(C#N)c(N)o1 | inactive: > 100 µM |
| CCOC(CN(C)C(=O)Nc1cccc2ccccc12)OCC | inactive: > 10 µM |
| COC(=O)C(=O)C(C(=O)C(=O)Nc1ccc(C)cc1C)c1nc2ccccc2nc1O (configuration not stated) | inactive: 80.5 µM |
| Nc1ncnc2c1ncn2[C@@H]1C[C@@H]1CO | inactive: > 100 µM |
| CC(C)(C)OC(=O)C1C(=O)NC(=O)CC1C(OCc1ccccc1)C(OCc1ccccc1)C(COCc1ccccc1)OCc1ccccc1 (configuration not stated) | inactive: > 100 µM |
| CCOc1ccc(/N=C/C=C(\Cl)c2ccc3ccccc3c2)cc1 | inactive: 16.3 µM |
| O=C(NCCC1CN(S(=O)(=O)C(F)(F)F)c2ccccc21)OCc1ccccc1 (configuration not stated) | inactive: > 100 µM |
| NCCCN1CCN(CCCNc2ccc3ncn4c5ccccc5c(=O)c2c34)CC1 | inactive: 1.98 µM |
| C=CCSC1=N/C(=C\c2ccc(C)cc2)C(=O)N1CC=C | inactive: 23.6 µM |
| O=C(O)c1ccccc1Sc1ccc(C=C2NC(=S)N(c3ccccc3)C2=O)s1 | inactive: > 100 µM |
| O=S1(=O)c2ccccc2Oc2ccc(C(/C=N/O)=N/O)cc21 | inactive: 11 µM |
| CSc1s[s+]c(SC)c1[O-] | inactive: > 100 µM |

| Structure (SMILES) | GI50 |
| --- | --- |
| CC(C(=O)n1ccnc1)N1c2ccccc2Sc2ccccc21 (configuration not stated) | inactive: > 100 µM |
| Cc1c(C#N)c2nc3ccccc3n2c(=O)/c1=C/Nc1ccc(Cl)cc1 | inactive: 34.3 µM |
| COc1ccc2nc3cc([N+](=O)[O-])ccc3c(Nc3ccc(S(=O)(=O)Nc4ncccn4)cc3)c2c1 | inactive: > 74.6 µM |
| CC(C)C(C(=O)O)N(CC1(O)OCC(O)C(O)C1O)N=O (configuration not stated) | inactive: > 100 µM |
| Cc1cc2c(cc1C)[n+]([O-])c(C(=O)C/C(=N/NC(=O)CC#N)C(=O)Nc1ccccc1C(F)(F)F)c(C)[n+]2[O-] | inactive: 62.1 µM |
| O=P1(N(CCCl)CCCl)Oc2ccc(Cl)cc2Sc2c(ccc(Cl)c2Cl)O1 (configuration not stated) | inactive: 57.7 µM |
| CCOC(=O)c1c[nH]c2c(ccc3ncccc32)c1=O | inactive: > 100 µM |
| O=C(N/C(=C\c1ccccc1Cl)c1nc2ccccc2[nH]1)c1ccccc1 | inactive: 37.8 µM |
| CCC1OC(=O)C(C)C(OC2CC(C)(O)C(O)C(C)O2)C(C)C(O)C(C)(O)CC(C)C(=O)C(C)C(O)C1C (configuration not stated) | inactive: > 300 µM |
| CC#COS(=O)(=O)c1ccc(C)cc1 | inactive: > 100 µM |
| FC(F)(F)c1ccccc1C1SCC2=Nc3ccccc3CN21 (configuration not stated) | inactive: 12.8 µM |
| O=C1NC(=O)C(=O)C(c2nc3ccccc3s2)C1=O | inactive: > 100 µM |
| C/C(=N/NC(=S)N1CCCCC1)c1ccccc1O | inactive: > 31.6 µM |
| CC1(C)OC(=O)C(C)(C)C(=O)O1 | inactive: > 100 µM |
| O=c1[nH]c(=O)n(C2COC(CO)C2O)cc1F (configuration not stated) | inactive: 35.6 µM |
| Cc1c(S(=O)(=O)O)ccc(/N=N/c2c(O)c(C(=O)O)cc3ccccc23)c1Cl | inactive: > 100 µM |
| COc1cc(C2c3cc4c(cc3[C@@H](Nc3ccc([N+](=O)[O-])cc3)C3COC(=O)[C@H]23)OCO4)cc(OC)c1O (some centres not stated) | inactive: 6.5 µM |
| CC(/C=C/C(=O)NO)=C\C(C)C(=O)c1ccc(N(C)C)cc1 (configuration not stated) | active: 0.0441 µM |
| CC1(C(=O)O)C[C@](C)(C(=O)OCc2ccccc2)C[C@](C)(C(=O)OCc2ccccc2)C1 (some centres not stated) | inactive: 36.1 µM |
| C[n+]1c(-c2ccc(/C=N\NC(=O)c3ccc(C(=O)N/N=C/c4ccc(-c5cn6ccsc6[n+]5C)cc4)cc3)cc2)cn2ccsc21 | inactive: 17.7 µM |
| CN(C)CCn1c(=O)c2ccc(NCCNCCO)c3c(=O)c4ccccc4n(c1=O)c23 | active: 0.209 µM |
| COc1cc(/C=C\c2ccc(SC)cc2)cc(OC)c1OC | active: 0.0395 µM |
| O=C1OC(=O)C2C3CCC(O3)C12 (configuration not stated) | inactive: > 100 µM |
